Source: PMC12582325 (Proceedings of the National Academy of Sciences of the …, 2025)
Where a SMILES comes first, the peptide text is derived from it.

System: F. oxysporum germ tubes
Conditions: 13 h

| Molecule | Effect on directional growth toward tomato root exudate (RE) | Effect on hyphal chemotropism toward Fo pheromone |
| --- | --- | --- |
| CC(C)C[C@H](NC(=O)[C@H](CS)NC(=O)[C@@H](N)Cc1c[nH]c2ccccc12)C(=O)N[C@@H](Cc1c[nH]c2ccccc12)C(=O)N[C@@H](C)C(=O)NCC(=O)N[C@@H](CCC(N)=O)C(=O)N1CCC[C@H]1C(=O)N[C@@H](CS)C(=O)N[C@@H](Cc1c[nH]c2ccccc12)C(=O)O [A4] (H-WCLWAGQPCW-OH; N-terminus assumed) | invert directional growth | fully abolished |
| WRWPCCWGQT [Scrambled] | no significant effect | – |
| C[C@@H](O)[C@H](NC(=O)[C@H](CS)NC(=O)[C@@H](N)Cc1c[nH]c2ccccc12)C(=O)N[C@@H](Cc1c[nH]c2ccccc12)C(=O)N[C@@H](CCCNC(=N)N)C(=O)NCC(=O)N[C@@H](CCC(N)=O)C(=O)N1CCC[C@H]1C(=O)N[C@@H](CS)C(=O)N[C@@H](Cc1c[nH]c2ccccc12)C(=O)O [Fo] (H-WCTWRGQPCW-OH; N-terminus assumed) | invert directional growth | – |
